Source: PubChem BioAssay AID504466 (National Center for Advancing Translational Sciences (NCATS), 2011)
About 4,200 (1.3%) of roughly 330,000 compounds were called active. This list was built around the results that the source calls inconclusive (neither active nor inactive); the mix of calls is not that of the screen. Calls come from the whole dose curve; as a rule, active = well fitted activation curve with a large enough effect; inconclusive = small, poorly fitted or top-dose-only effect; inactive = no such curve, though single readings can be large or run the other way. A potency beside an inconclusive call is a rough fit, not a confirmed value.

Experiment: qHTS screen for small molecules that induce genotoxicity in human embryonic kidney (HEK293T) cells expressing luciferase-tagged ELG1; note: nearly all actives have a fitted effect of over 60% in size; for activity change, positive = activation: % of control where 0% means no effect
Conditions: HEK293T ELG1-luciferase reporter, luminescence, 16 h; series mostly up to 46 µM; activity change, positive = activation: at the top concentration
Procedure, shortened: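 HEK293T cells expressing luciferase-tagged ELG1 were treated with compound or DMSO for 16 hr at 37°C. Luciferase activity was then read after 30 min with ONE-Glo at room temperature; rising signal flags genetic stress.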
Potency is the fitted concentration of half-maximal effect; tags give direction and shape of the fitted curve.

SMILES | Potency | activity change, positive = activation
CCc1sc(C(=O)Nc2ccc(NC(C)=O)cc2)cc1C | inconclusive: 23.1 µM [activator, partial curve, poor fit] | 
COC(=O)c1ccc(OCCOc2ccccc2)cc1 | inconclusive: 20.6 µM [activator, partial curve] | 
N/C(=N\OC(=O)c1cccc(Br)c1)c1ccccn1 | inconclusive: 0.58 µM [activator, full curve] | 
COc1cc(OC)c(OC)cc1/C=N/Nc1nc2ccccc2[nH]1 |  | inactive: 1.32%
Cc1ncc(CO)c(/C=N/NC(=O)c2cc(Br)ccc2O)c1O | inconclusive: 20.6 µM [activator, partial curve, poor fit] | 
O=C1/C(=C/c2ccccc2)CSc2sccc21 | inconclusive: 20.6 µM [activator, partial curve, poor fit] | 
COc1ccc(NC(=O)N2CCc3ccccc32)cc1 | inconclusive: 0.891 µM [activator, full curve, poor fit] | 
COc1cccc2sc(Nc3nnc(-c4cccs4)o3)nc12 | inconclusive: 9.2 µM [activator, partial curve, poor fit] | 
CN(C)c1ccc(N=Nc2ccccc2Br)cc1 | inconclusive: 0.58 µM [activator, full curve] | 
COc1cc(/C=C2/SC(=Nc3ccc(O)cc3)NC2=O)ccc1O | inconclusive: 13 µM [activator, partial curve, poor fit] | 
Cc1cc(NC(=O)c2ccc3nc(C)sc3c2)no1 | active: 9.2 µM | 
CC1C=CCC2C(=O)N(c3cccc(C(=O)N4CCN(c5ccc(F)cc5)CC4)c3)C(=O)C12 (configuration not stated) | inconclusive: 16.4 µM [activator, partial curve, poor fit] | 
COc1ccc(C(CC(=O)O)N2C(=O)CCC2=O)cc1 (configuration not stated) |  | inactive: -2.18%
c1ccc(-c2csc(NC3CCCCC3)n2)cc1 | active: 5.17 µM | 
Cc1ccc(S(=O)(=O)N2CCN(c3ccccc3)CC2)cc1C(=O)NC1CCCCC1 |  | inactive: -0.0139%
O=C(CSc1ccccc1F)NNC(=O)c1cncc(Br)c1 |  | inactive: 0.2%
O=C(COC(=O)c1ccccc1O)NC12CC3CC(CC(C3)C1)C2 | inconclusive: 23.1 µM [activator, partial curve, poor fit] | 
CCOC(=O)CN(C(=O)CNC(=O)c1ccco1)C(C(=O)NC1CCCCC1)c1cccc(OC)c1 (configuration not stated) | inconclusive: 25.9 µM [activator, partial curve, poor fit] | 
COc1ccc(C(=O)Nc2nncs2)c(OC)c1 | inconclusive: 25.9 µM [activator, single point] | 
CC(=O)c1ccc(NC(=O)Nc2cccc3ccccc23)cc1 | inconclusive: 18.3 µM [activator, single point] | 
CCSc1nnc(NC(=O)c2ccccc2C)s1 | inconclusive: 9.2 µM [activator, partial curve, poor fit] | 
COC(=O)c1c(C)[nH]c(-c2csc(N)n2)c1C | inconclusive: 20.6 µM [activator, single point] | 
COC(=O)/C(=C1/Oc2cc(C)oc(=O)c2S1)C(F)(F)F |  | inactive: -7.9%
CCCCNc1c(-c2ccc(OC)c(SC(C)CC)c2)nc2ccc(C)cn12 (configuration not stated) |  | inactive: -6.93%

SMILES | Potency | activity change, positive = activation
Nc1ccc2nn(-c3ccc(Cl)cc3)nc2c1 | inconclusive: 1.46 µM [activator, full curve] | 
Cc1cc(C)cc(N(CC(=O)Nc2ccc(-c3nc4ccc(C)cc4s3)cc2)S(C)(=O)=O)c1 | inconclusive: 5.17 µM [activator, full curve, poor fit] | 
CCOC(=O)c1sc(=NC(=O)c2ccccc2Br)n(C)c1C | inconclusive: 4.61 µM [activator, full curve] | 
O=C(CN1CCC(n2nnc3cc(F)ccc32)CC1)NC1CC1 |  | inactive: -2.69%
CCOCC(=O)Nc1nc2ccc(OCC)cc2s1 | active: 8.2 µM | 
CC(C)NC(=O)c1cc(-c2ccc3c(c2)OCO3)on1 | inconclusive: 2.06 µM [activator, full curve, poor fit] | 
Clc1ccccc1OCc1nc(-c2ccncc2)no1 | inconclusive: 11.6 µM [activator, partial curve] | 
CCOc1ccc(CNC(=O)C2CCN(c3nnc(C)c4c(C)n(-c5ccc(C)cc5)nc34)CC2)cc1 | inconclusive: 20.6 µM [activator, partial curve, poor fit] | 
Cc1nc2ccc(NC(=O)[C@H](C)N3C(=O)C4CC=CCC4C3=O)cc2s1 (some centres not stated) |  | inactive: 1%
Cc1ccc(CONC(=O)c2ccc(Cl)cc2)cc1 | inconclusive: 25.9 µM [activator, partial curve, poor fit] | 
O=C(NCC(c1ccco1)N1CCc2ccccc21)C(=O)Nc1ccccc1F (configuration not stated) | inconclusive: 23.1 µM [activator, single point] | 
c1ccc(-n2ncc3c(NC4CCCCCC4)ncnc32)cc1 | inconclusive: 2.31 µM [activator, full curve] | 
O=C(Nc1ccc(Br)cc1F)c1ccc2nsnc2c1 | active: 10.3 µM | 
CC1(C)CC(=O)C(N=Nc2ccc(Cl)cc2)=C(O)C1 | inconclusive: 7.31 µM [activator, partial curve] | 
COc1ccc(CC(=O)OCC(=O)Nc2ccc3c(c2)OCO3)cc1OC |  | inactive: 2.61%
CC1CCN(C(=O)COC(=O)c2ccc3c(c2)OCCO3)CC1 | inconclusive: 23.1 µM [activator, single point] | 
Cc1csc2ncc(C(=O)Nc3ccccc3Cl)c(=O)n12 | inconclusive: 2.31 µM [activator, full curve, poor fit] | 
Cc1c(CC(=O)NCCC(=O)O)c(=O)oc2cc3oc4c(c3cc12)CCCC4 |  | inactive: -17.2%
CNC(=O)c1cc(C)c(-c2ccccc2)s1 | inconclusive: 18.4 µM [activator, partial curve, poor fit] | 
Cc1cc(C(=O)Nc2nc3ccc(S(C)(=O)=O)cc3s2)c(C)o1 | active: 8.2 µM | 
COc1ccc(C(=O)Nc2cc3c4c(c2)C(C)C(=O)N4CCC3)cc1 (configuration not stated) | inconclusive: 18.3 µM [activator, single point] | 
Cc1ccc(S(=O)(=O)C2(C(=O)Nc3ccc(F)cc3)CC2)cc1 |  | inactive: 0.508%
O=C1NC[C@@H](c2ccccc2)OC(=O)[C@@H](Cc2ccc(F)cc2)C/C=C\C[C@@H]1CC(=O)N(CCO)Cc1ccccc1 |  | inactive: -6.53%
COc1cc2c(cc1OC)C(c1cccc([N+](=O)[O-])c1)N(C(=O)CCC(=O)O)CC2 (configuration not stated) |  | inactive: -0.343%

SMILES | Potency | activity change, positive = activation
Cc1ccc(C(=O)NCC(=O)NC2CC2)cc1 |  | inactive: 3.52%
O=C(CCSc1ccc(Cl)cc1)N1CCN(c2ccc(O)cc2)CC1 | inconclusive: 9.2 µM [activator, partial curve, poor fit] | 
O=C(CNC(=O)c1ccco1)Nc1ccc(Br)cc1 | inconclusive: 11.6 µM [activator, partial curve, poor fit] | 
CC(C)c1ccc(C(=O)CSc2ncn[nH]2)cc1 | inconclusive: 20.6 µM [activator, partial curve, poor fit] | 
Clc1ccc(OCCSc2ncccn2)c(Br)c1 | active: 2.06 µM | 
CC(NC(=O)CN1CCc2ccccc21)c1ccccc1 (configuration not stated) |  | inactive: -0.0862%
Cc1[nH]n(-c2ccccc2)c(=O)c1C=NCc1ccco1 | active: 16.4 µM | 
COc1ccc(-n2nc3c(N4CCC(C(=O)NCC(C)c5ccccc5)CC4)nnc(C)c3c2C)cc1 (configuration not stated) | inconclusive: 32.6 µM [activator, partial curve, poor fit] | 
Cc1ccc(Sc2nc3c(c(=O)[nH]c(=O)n3C)n2CCc2ccccc2)cc1 | inconclusive: 20.6 µM [activator, single point] | 
CN(C)c1nc(N)c2ncc(=S)[nH]c2n1 | inconclusive: 29.1 µM [activator, single point] | 
CC(C)c1nc2sc3c(SCC(N)=O)ncnc3c2c2c1CCC2 | inconclusive: 20.6 µM [activator, partial curve, poor fit] | 
O=C(COC(=O)c1ccc(F)c(S(=O)(=O)N2CCOCC2)c1)NCc1ccc(F)cc1 |  | inactive: -1.59%
O=C(CC1SC(N2CCCCC2)=NC1=O)Nc1cccc(C(=O)Nc2ncccc2O)c1 (configuration not stated) | inconclusive: 20.6 µM [activator, single point] | 
CC1CCCN(C(=O)COC(=O)CNC(=O)c2sc3ccccc3c2Cl)C1 (configuration not stated) |  | inactive: -0.525%
O=S(=O)(c1ccc(Cl)cc1)N1CCN(C(=S)Nc2ccc(F)c(Cl)c2)CC1 |  | inactive: -7.76%
COCCn1c(C)cc(C(=O)COC(=O)CCN2C(=O)c3ccccc3C2=O)c1C |  | inactive: 0.947%
CCCCN1CC(O)=C(c2nc(-c3ccc(Br)cc3)cs2)C1=N | inconclusive: 20.6 µM [activator, partial curve, poor fit] | 
COc1cc(NC(=O)c2nccn2C)cc(C(=O)Nc2cccc(C(F)(F)F)c2)c1 | inconclusive: 25.9 µM [activator, partial curve, poor fit] | 
CC(C)c1ccc(/C=N/Nc2ccc(C(=O)O)cc2)cc1 | inconclusive: 0.0651 µM [activator, full curve] | 
O=C(O)c1cccc([N+](=O)[O-])c1C(=O)Nc1nc2ccccc2s1 |  | inactive: -0.171%
O=c1c2cc(-c3ccccc3)sc2ncn1/N=C/c1ccco1 | inconclusive: 16.4 µM [activator, partial curve, poor fit] | 
CCCNC(=O)c1cc(-c2ccc(OC)cc2)on1 | active: 4.61 µM | 
CC(=O)c1ccc(NC(=O)CNCc2cccs2)cc1 | inconclusive: 20.6 µM [activator, single point] | 
O=C(COc1cccnc1[N+](=O)[O-])Nc1cccc(Br)c1 | inconclusive: 2.59 µM [activator, full curve, poor fit] | 
